Reference: patent US5744450A, “GnRH analogs” (The Salk Institute for Biological Studies, priority 1995, dated 1998)
Not every detail of the peptide structures is certain; ends, links or a residue may be inferred. Numbered stars: 1 amine (or outer) side, 2 acyl side, 3 side chain; on linkers, the order of the positions; unused ones are H or OH. Square brackets hold non-standard residues; d marks the D form. Peptide text beside a SMILES is read from it. * marks the point of attachment. dLys(Nε-C(NCN)NHBu) = CCCCNC(=NC#N)NCCCC[C@@H](N)C(=O)O; hArg(ω-Bu,ω'-CN) = CCCC/N=C(\NC#N)NCCCC[C@H](N)C(=O)O; X16 = N#CN=C(NCCCC[C@H](N[*:1])C(=O)[*:2])Oc1ccccc1; X15 = CCCCCCNC(=NC#N)NCCCC[C@@H](N[*:1])C(=O)[*:2]; X14 = CCCCCCNC(=NC#N)NCCCC[C@H](N[*:1])C(=O)[*:2]; X3 = CCNC(=NC#N)NCCCC[C@@H](N[*:1])C(=O)[*:2]; X2 = CCNC(=NC#N)NCCCC[C@H](N[*:1])C(=O)[*:2]; Triazol3yl(1,2,4-5-NH2) = Nc1nc(*)n[nH]1; dPhe(4-Cl) = N[C@H](Cc1ccc(Cl)cc1)C(=O)O; d2Nal = N[C@H](Cc1ccc2ccccc2c1)C(=O)O; Lys(iPr) = CC(C)NCCCC[C@H](N)C(=O)O; d3Pal = N[C@H](Cc1cccnc1)C(=O)O; Nicotinoyl = O=C(c1cccnc1)*; ΔPro = O=C(O)[C@@H]1C=CCN1

Test system: ovulation in female rats
Assay: in vivo test of effectiveness to prevent ovulation in female rats
Set-up: species or system rat
Conditions: injected about noon on day of proestrus, female Sprague-Dawley rats, ovulating/treated

Structure (SMILES) | Rats Ovulating (dosage 2.5 micrograms) | Rats Ovulating (dosage 10 micrograms) | other results
CCCCCCNC(=NC#N)NCCCC[C@H](NC(=O)[C@H](CO)NC(=O)[C@@H](Cc1cccnc1)NC(=O)[C@@H](Cc1ccc(Cl)cc1)NC(=O)[C@@H](Cc1ccc2ccccc2c1)NC(C)=O)C(=O)N[C@H](CCCCNC(=NC#N)NCCCCCC)C(=O)N[C@@H](CC(C)C)C(=O)N[C@@H](CCCCNC(C)C)C(=O)N1CCC[C@H]1C(=O)N[C@H](C)C(N)=O [Peptide 9] (Ac-[d2Nal][dPhe(4-Cl)][d3Pal]S[X14][X15]L[Lys(iPr)]P[dA]-NH2) | 0/6 | – | Rats Ovulating (dosage 1.0 micrograms): 5/5
CCNC(=NC#N)NCCCC[C@H](NC(=O)[C@H](CO)NC(=O)[C@@H](Cc1cccnc1)NC(=O)[C@@H](Cc1ccc(Cl)cc1)NC(=O)[C@@H](Cc1ccc2ccccc2c1)NC(C)=O)C(=O)N[C@H](CCCCNC(=NC#N)NCC)C(=O)N[C@@H](CC(C)C)C(=O)N[C@@H](CCCCNC(C)C)C(=O)N1CCC[C@H]1C(=O)N[C@H](C)C(N)=O [Peptide 10] (Ac-[d2Nal][dPhe(4-Cl)][d3Pal]S[X2][X3]L[Lys(iPr)]P[dA]-NH2) | 5/8 | – | Rats Ovulating (dosage 2.0 micrograms): 1/10
CCCCNC(=NC#N)NCCCC[C@H](NC(=O)[C@H](CC(C)C)NC(=O)[C@@H](CCCCNC(=O)c1cccnc1)NC(=O)[C@H](CCCCNC(=O)c1cccnc1)NC(=O)[C@H](CO)NC(=O)[C@@H](Cc1cccnc1)NC(=O)[C@@H](Cc1ccc(Cl)cc1)NC(=O)[C@@H](Cc1ccc2ccccc2c1)NC(C)=O)C(=O)N1CCC[C@H]1C(=O)N[C@H](C)C(N)=O [Peptide 13] (Ac-[d2Nal][dPhe(4-Cl)][d3Pal]SK(Nicotinoyl)[dK](Nicotinoyl)L[hArg(ω-Bu,ω'-CN)]P[dA]-NH2) | – | 3/5 | –
CCCCNC(=NC#N)NCCCC[C@H](NC(=O)[C@H](CO)NC(=O)[C@@H](Cc1cccnc1)NC(=O)[C@@H](Cc1ccc(Cl)cc1)NC(=O)[C@@H](Cc1ccc2ccccc2c1)NC(C)=O)C(=O)N[C@H](CCCCNC(=NC#N)NCCCC)C(=O)N[C@@H](CC(C)C)C(=O)N[C@@H](CCCNC(=N)N)C(=O)N1CCC[C@H]1C(=O)N[C@H](C)C(N)=O [Peptide 15] (Ac-[d2Nal][dPhe(4-Cl)][d3Pal]S[hArg(ω-Bu,ω'-CN)][dLys(Nε-C(NCN)NHBu)]LRP[dA]-NH2) | 0/4 | – | –
CCCCNC(=NC#N)NCCCC[C@H](NC(=O)[C@H](CC(C)C)NC(=O)[C@@H](Cc1ccc2ccccc2c1)NC(=O)[C@H](Cc1ccc(O)cc1)NC(=O)[C@H](CO)NC(=O)[C@@H](Cc1ccc2ccccc2c1)NC(=O)[C@@H](Cc1ccc(Cl)cc1)NC(=O)[C@@H]1C=CCN1C(C)=O)C(=O)N1CCC[C@H]1C(=O)N[C@H](C)C(N)=O [Peptide 17] (Ac-[ΔPro][dPhe(4-Cl)][d2Nal]SY[d2Nal]L[hArg(ω-Bu,ω'-CN)]P[dA]-NH2) | – | 6/8 | Rats Ovulating (dosage 15 micrograms): 7/10
CC(=O)N[C@H](Cc1ccc2ccccc2c1)C(=O)N[C@H](Cc1ccc(Cl)cc1)C(=O)N[C@H](Cc1cccnc1)C(=O)N[C@@H](CO)C(=O)N[C@@H](Cc1ccc(O)cc1)C(=O)N[C@H](CCCNC(=N)N)C(=O)N[C@@H](CC(C)C)C(=O)N[C@@H](CCCCNc1n[nH]c(N)n1)C(=O)N1CCC[C@H]1C(=O)N[C@H](C)C(N)=O [Peptide 32A] (Ac-[d2Nal][dPhe(4-Cl)][d3Pal]SY[dR]LK(Triazol3yl(1,2,4-5-NH2))P[dA]-NH2) | 0/7 | 0/6 | Rats Ovulating (dosage 1.0 micrograms): 5/10; Rats Ovulating (dosage 5.0 micrograms): 0/6
CC(=O)N[C@H](Cc1ccc2ccccc2c1)C(=O)N[C@H](Cc1ccc(Cl)cc1)C(=O)N[C@H](Cc1cccnc1)C(=O)N[C@@H](CO)C(=O)N[C@@H](Cc1ccc(O)cc1)C(=O)N[C@H](CCCNC(=N)N)C(=O)N[C@@H](CC(C)C)C(=O)N[C@@H](CCCCNC(=NC#N)Oc1ccccc1)C(=O)N1CCC[C@H]1C(=O)N[C@H](C)C(N)=O [Peptide 55] (Ac-[d2Nal][dPhe(4-Cl)][d3Pal]SY[dR]L[X16]P[dA]-NH2) | – | 6/7 | Rats Ovulating (dosage 25 micrograms): 2/5
CC(=O)N[C@H](Cc1ccc2ccccc2c1)C(=O)N[C@H](Cc1ccc(Cl)cc1)C(=O)N[C@H](Cc1c[nH]c2ccccc12)C(=O)N[C@@H](CO)C(=O)N[C@@H](CCCNC(=N)N)C(=O)N[C@H](Cc1ccc2ccccc2c1)C(=O)N[C@@H](CC(C)C)C(=O)N[C@@H](CCCCNC(=NC#N)Oc1ccccc1)C(=O)N1CCC[C@H]1C(=O)N[C@H](C)C(N)=O [Peptide 86] (Ac-[d2Nal][dPhe(4-Cl)][dW]SR[d2Nal]L[X16]P[dA]-NH2) | – | – | Rats Ovulating (dosage 5.0 micrograms): 5/5
CCCCNC(=NC#N)NCCCC[C@@H](NC(=O)[C@H](CCCNC(=N)N)NC(=O)[C@H](CO)NC(=O)[C@@H](Cc1cccnc1)NC(=O)[C@@H](Cc1ccc(Cl)cc1)NC(=O)[C@@H](Cc1ccc2ccccc2c1)NC(C)=O)C(=O)N[C@@H](CC(C)C)C(=O)N[C@@H](CCCNC(=N)N)C(=O)N1CCC[C@H]1C(=O)N[C@H](C)C(N)=O [Peptide 88] (Ac-[d2Nal][dPhe(4-Cl)][d3Pal]SR[dLys(Nε-C(NCN)NHBu)]LRP[dA]-NH2) | 0/4 | 0/8 | –
